Here are results for 91 compounds from article PMC4336329 (PLoS ONE, 2015).

The structures appear in SMILES notation. The whole screen tested about 310,000 compounds, of which about 14,000 (4.5%) showed an effect of 50% or more. Effects have a minus sign here. The list shows a part of the results.
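Also: peak tail current of the secondary pulse compared with the same well before compound.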

For this assay, the target named is human ether-à-go-go-related gene (hERG) potassium channel (human, UniProt Q12809). The assay is described as follows: primary screen, population patch clamp on CHO cells stably expressing hERG.
Sequence of human ether-à-go-go-related gene (hERG) potassium channel (Q12809 whole entry, looked up): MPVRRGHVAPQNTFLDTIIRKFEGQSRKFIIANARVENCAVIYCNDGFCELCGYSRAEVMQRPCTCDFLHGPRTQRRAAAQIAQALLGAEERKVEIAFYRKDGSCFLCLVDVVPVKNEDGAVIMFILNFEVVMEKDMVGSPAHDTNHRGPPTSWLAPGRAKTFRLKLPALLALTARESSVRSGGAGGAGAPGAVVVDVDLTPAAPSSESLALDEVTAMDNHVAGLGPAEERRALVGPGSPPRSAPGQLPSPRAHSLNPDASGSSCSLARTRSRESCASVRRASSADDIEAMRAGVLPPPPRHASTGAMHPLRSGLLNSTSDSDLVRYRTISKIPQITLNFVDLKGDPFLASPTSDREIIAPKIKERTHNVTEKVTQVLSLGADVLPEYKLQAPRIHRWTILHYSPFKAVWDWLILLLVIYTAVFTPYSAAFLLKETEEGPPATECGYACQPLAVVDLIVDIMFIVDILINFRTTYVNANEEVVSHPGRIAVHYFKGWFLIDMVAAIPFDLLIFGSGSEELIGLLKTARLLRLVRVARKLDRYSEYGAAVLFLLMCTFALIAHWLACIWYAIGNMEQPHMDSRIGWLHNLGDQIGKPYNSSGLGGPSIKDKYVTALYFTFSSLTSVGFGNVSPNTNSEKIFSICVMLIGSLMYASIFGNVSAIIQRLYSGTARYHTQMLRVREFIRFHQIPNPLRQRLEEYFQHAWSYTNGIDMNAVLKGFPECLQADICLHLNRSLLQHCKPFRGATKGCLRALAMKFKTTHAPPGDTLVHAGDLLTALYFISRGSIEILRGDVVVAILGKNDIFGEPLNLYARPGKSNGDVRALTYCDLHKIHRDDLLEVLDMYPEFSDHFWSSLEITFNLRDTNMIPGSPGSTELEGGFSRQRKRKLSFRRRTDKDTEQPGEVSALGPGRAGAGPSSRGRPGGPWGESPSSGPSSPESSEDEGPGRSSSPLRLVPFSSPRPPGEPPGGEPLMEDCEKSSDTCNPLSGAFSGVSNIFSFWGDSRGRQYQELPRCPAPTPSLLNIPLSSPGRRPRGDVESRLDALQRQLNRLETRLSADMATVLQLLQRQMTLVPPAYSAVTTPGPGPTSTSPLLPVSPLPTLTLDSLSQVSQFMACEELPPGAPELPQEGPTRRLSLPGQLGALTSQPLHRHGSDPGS
Consider `CNC(=O)N1c2ccccc2C=Cc2ccccc21`, for which the “hERG current change (%, negative = inhibition) at 10uM” value worked out at 20.1%.
As for `Cc1ccc2c(c1)CC1(CN2C)C(=O)OC2(CCCCC2)OC1=O`, the figure is 13.4%; as for `COC(c1ccccc1)c1nnc(CCC(=O)N2CCCCCCC2)o1` (stereo not shown), 1.16%; as for `COc1cccc(-c2nnc(NC(=O)c3ccco3)s2)c1`, 12.4%.
The value for `O=C(O)c1ccc(/C=N/Nc2ncc(C(F)(F)F)cc2Cl)cc1` was 3.54%.
In the case of `CC(=O)Nc1sc(-c2ccc(Cl)cc2)nc1-c1ccccc1`, the “hERG current change (%, negative = inhibition) at 10uM” value is given as 0.844%.
On to `O=C(COC(=O)Cn1cnc2ccccc21)NCCC1=CCCCC1`, for which the “hERG current change (%, negative = inhibition) at 10uM” value turned out to be 2.52%.
Take `CCCN1C2CCCC1CC(NC(=O)c1cccc(Cl)c1)C2` (stereo not shown): the “hERG current change (%, negative = inhibition) at 10uM” value was -38.9%.
The value for `O=C(CN1CCSCC1)N/N=C/c1ccc(F)cc1F` was -6.43%.
For the compound `CCOC(=O)CC12CN3CN(C1)CC(CC(=O)OCC)(C3)C2=O`, the “hERG current change (%, negative = inhibition) at 10uM” value is given as 8.62%.
As for `CCOCCCNC(=O)Cc1ccc(F)cc1`, the figure is 7.62%; as for `COC(=O)c1ccc(CN2CCN(CC(C)C)C(CCO)C2)cc1` (stereo not shown), -3.11%.
On to `CCOC(=O)/C(C#N)=C1/CCCCCN1C`, for which the “hERG current change (%, negative = inhibition) at 10uM” value was found to be 1.48%.
As for `CCc1ccc(C(=O)CN2C(=O)NC3(CCc4ccccc43)C2=O)cc1` (stereo not shown), the figure is -22.5%; as for `CCCN1Cc2cccc(C(=O)NC3CCCC3)c2C1=O`, -18.9%.
Turning to `Cc1ccc(NS(=O)(=O)c2c(C)[nH]c(C)c2C(=O)N2CCCC2)cc1`, the “hERG current change (%, negative = inhibition) at 10uM” value was 15.9%.
As for `O=C(CN(C(=O)CCC(=O)Nc1nccs1)c1ccc2c(c1)OCO2)NCc1ccccc1`, the figure is 15.3%.
As for `O=C(Nc1ccccc1C(=O)Nc1ccccc1)c1cccs1`, the “hERG current change (%, negative = inhibition) at 10uM” value is -0.413%.
The value for `Cc1cc(C)c2c(N)c(C(=O)NCC3CCCCC3)sc2n1` was 6.61%.
The value for `CCOC(=O)N1CCc2c(sc3ncn(C)c(=O)c23)C1` was 5.05%; that for `Cc1cccc2nc(CSc3ccc(Cl)cc3)cn12` was -74.3%; that for `Cc1ccc(OCC(=O)NNC(=O)c2cc3ccccc3o2)cc1` was -0.251%.
`CC(C)Cn1c(CCNC(=O)c2ccco2)nc2ccccc21`: the “hERG current change (%, negative = inhibition) at 10uM” value is -1.3%.
As for `CCOC(=O)c1c(-c2ccc(C)cc2)csc1NC(=O)c1cccc(N2C(=O)CCC2=O)c1`, the figure is 0.102%.
Take `Cc1ccc(C2=NC(C)(C)N=C2SCC(=O)Nc2ccc(Cl)cc2)cc1`: the “hERG current change (%, negative = inhibition) at 10uM” value is on record as -13.9%.
On to `Cc1ccc(N2CCN(S(=O)(=O)c3ccc(-n4cnnn4)cc3)CC2)c(C)c1`, for which the “hERG current change (%, negative = inhibition) at 10uM” value is on record as 11.7%.
The value for `CCN(C(=O)CSc1ncnc2sc(C)c(C)c12)C1CCS(=O)(=O)C1` (stereo not shown) was -42.7%.
The value for `COc1ccc(OC)c(Nc2ncnc3sccc23)c1` was -0.251%.
As to `O=C(CSc1ncnc2c1cnn2-c1ccccc1Cl)N1CCN(C(=O)c2ccco2)CC1`, the “hERG current change (%, negative = inhibition) at 10uM” value was -65.7%.
The value for `O=C(Nc1ccc(S(=O)(=O)N2CCCC2)cc1)c1ccc(Cl)nc1` was -5.58%; that for `CCCOC(=O)C(C)n1c(-c2ccccc2)nc2ccccc2c1=O` (stereo not shown) was -5.65%; that for `Cn1c(=O)c2c(nc(NNC(=O)C(F)(F)F)n2C)n(C)c1=O` was 15%.
In the case of `CCc1c(C2(O)CCCCC2)[nH]c2ccc(C#N)cc12`, the “hERG current change (%, negative = inhibition) at 10uM” value stood at 6.95%.
The value for `COc1ccc(CCNS(=O)(=O)c2ccc3c(c2)oc(=O)n3C)cc1OC` was 7%; that for `Cc1ccc(S(=O)(=O)Nc2ccccc2CNC2CCCCC2)cc1` was -5.36%.
For the compound `Cc1cccc(C)c1NC(=O)NC1(C(=O)NCc2ccncc2)CCCCC1`, the “hERG current change (%, negative = inhibition) at 10uM” value was 11%.
As for `CCNc1nc(Oc2ccc(=O)[nH]n2)nc(N2CCOCC2)n1`, the figure is 21.9%.
As for `CN1CCC(C)(O)C2CCCCC21` (stereo not shown), the figure is 0.314%.
The value for `O=C(NCc1ccc(Cl)cc1Cl)c1ccc2nc[nH]c2c1` was -5.75%; that for `C=C(C)COc1ccc(-c2n[nH]c(C)c2Oc2ccccc2OC)c(O)c1` was -5.79%.
In the case of `CN(/N=C/c1ccncc1)c1cnc2ccccc2n1`, the “hERG current change (%, negative = inhibition) at 10uM” value is reported as 19.3%.
`CC(=O)CSc1nnc(-c2ccc(S(=O)(=O)N3CCCC3)cc2)n1C`: the “hERG current change (%, negative = inhibition) at 10uM” value was 15.3%.
With `CN(C)S(=O)(=O)c1cc(C(=O)NCc2ccccc2)c(Cl)cc1Cl`, the “hERG current change (%, negative = inhibition) at 10uM” value is listed as -14.4%.
As to `O=c1[nH]c2ccc(S(=O)(=O)N3CCN(c4ccc(F)cc4)CC3)cc2o1`, the “hERG current change (%, negative = inhibition) at 10uM” value is given as -22.9%.
With `CC(=O)c1ccc(N(CC(=O)NC2CCCCC2)C(=O)CNC(=O)c2cccs2)cc1`, the “hERG current change (%, negative = inhibition) at 10uM” value was -12.3%.
The value for `NC(=O)C1CNc2ccccc2O1` (stereo not shown) was -0.67%; that for `O=C(N/N=C/c1ccccn1)c1cc(-c2ccncc2)nc2ccccc12` was -13.6%.
The value for `Cc1ccc(C2Nc3ccccc3C(=O)N2CCN2CCNC2=O)cc1` (stereo not shown) was -11.7%; that for `O=c1c2nnn(-c3cccc(F)c3)c2ncn1Cc1ccccn1` was -15.3%.
The value for `CCOC(=O)/C=C1\SCC(=O)N1CC(=O)NCc1cccc(Cl)c1` was -18.6%; that for `COc1ccc(NC(=O)Cn2c3ccccc3c3nc4n(c(=O)c32)CCS4)cc1` was 7.66%.
For `Clc1ccccc1CN1CCN(/N=C/C=C\c2ccco2)CC1`, the “hERG current change (%, negative = inhibition) at 10uM” value is on record as -13%.
As for `Cc1ccc(Cn2nnc3c(=O)n(CC(=O)NCc4ccccc4)cnc32)cc1`, the figure is 6.5%.
As for `CC(=O)Nc1cccc(OCC(=O)Nc2ccccc2)c1`, the figure is 12.3%.
As for `c1ccc(-c2ccc(-c3cnc4n3CCCCC4)cc2)cc1`, the figure is -21.8%; as for `Cc1ccc(NC(=O)C2CC(=O)N/C(=N/NC(=O)c3ccc(C)cc3)S2)cc1` (stereo not shown), 4.9%; as for `O=C(O)CCC(=O)OCC1CCCCC1`, 3.3%.
In the case of `CCOc1ccccc1CN1CCNC(=O)C1CC(=O)N(C)C1CCOCC1` (stereo not shown), the “hERG current change (%, negative = inhibition) at 10uM” value was 17.5%.
As for `O=c1[nH]cnc2c1C1(CCCC1)Cc1ccccc1-2`, the figure is 7.69%.
As for `COc1ccc(C(=O)NC2CC3CCCC(C2)N3CC(C)C)cc1OC` (stereo not shown), the figure is 7.71%; as for `CCn1cc(C(=O)O)c(=O)c2cnc(N3CCN(C(=S)Nc4ccc(F)cc4)CC3)nc21`, 13.3%.
The value for `CN(/C(=N/S(=O)(=O)c1cccs1)c1ccccc1)c1ccc(O)cc1` was 13.6%; that for `Cc1cccnc1NC(=O)C1CC(=O)N(c2ccc3c(c2)OCCO3)C1` (stereo not shown) was 18%.
`CCn1cc(CN2CCN(Cc3ccsc3)C(CCO)C2)cn1` (stereo not shown): the “hERG current change (%, negative = inhibition) at 10uM” value is given as -3.26%.
On to `Cc1ccc(-c2csc3ncnc(SCC(=O)NCC4CCCO4)c23)cc1` (stereo not shown), for which the “hERG current change (%, negative = inhibition) at 10uM” value is recorded as -35.4%.
In the case of `O=C(NCCC1CCCCN1S(=O)(=O)c1ccccc1)C(=O)Nc1ccc(F)cc1` (stereo not shown), the “hERG current change (%, negative = inhibition) at 10uM” value was -16.7%.
As for `CN1CCN(C(=S)C(=O)Nc2ccccc2)CC1`, the “hERG current change (%, negative = inhibition) at 10uM” value was determined as 26.1%.
As for `O=C(NC(=S)Nc1ccccc1)c1cc(-c2ccccc2)nc2ccccc12`, the figure is -4.97%; as for `CCOC(=O)[C@@H]1[C@H]2COc3ccccc3[C@@H]2N2C(=O)N(c3ccc(Cl)cc3)C(=O)[C@@]12C`, -7.5%; as for `Cn1c(N)c(C(=O)COC(=O)c2ccccc2NCc2ccco2)c(=O)n(C)c1=O`, 21.4%.
As for `O=C(c1ccc(OC2CCN(Cc3ccccn3)CC2)cc1)N1CCC[C@H]1CO`, the figure is 19.4%.
As for `Cc1c(Cl)cccc1NC(=O)COC(=O)CCc1nc2ccccc2n1-c1ccccc1`, the “hERG current change (%, negative = inhibition) at 10uM” value is given as -18.1%.
As for `CC(c1ccccc1)C1CC(=O)N(c2ccc([N+](=O)[O-])cc2)C1=O` (stereo not shown), the figure is -45%; as for `Cc1[nH]c2ccc(F)cc2c(=O)c1SC(F)(F)C(F)F`, 10.7%.
As for `COCCC(=O)NC1CCCc2c1cnn2-c1cccc(C)c1C` (stereo not shown), the figure is 9.3%.
`CC1=NN(C(N)=S)C(=O)C1N=Nc1ccccc1C(=O)O` (stereo not shown): the “hERG current change (%, negative = inhibition) at 10uM” value came to 22.1%.
As for `CCOc1ccccc1-n1c(SC(C)C(=O)NCC2CCCO2)nc2ccccc2c1=O` (stereo not shown), the figure is -10.7%; as for `Cc1nc(NC(=O)c2ccco2)sc1C(=O)O`, -7.53%; as for `CCC(=O)c1ccc(OCC(=O)OCC(=O)Nc2c(C)n(C)n(-c3ccccc3)c2=O)cc1`, 18.8%.
The value for `COc1ccccc1COc1ccc2c(C)c(CC(=O)O)c(=O)oc2c1C` was 20.2%; that for `COc1cc(C(=O)NCCNc2nc3c(C)c(C)ccc3cc2C#N)cc(OC)c1OC` was 8.26%; that for `O=C(Cc1coc(-c2ccc(F)cc2)n1)NCc1ccccc1` was 13.6%.
As for `CCC(C(=O)NC(C)CCc1ccco1)n1nc(C)n2c(cc3occc32)c1=O` (stereo not shown), the figure is -18%.
For the compound `CCn1cc(C(=O)NCc2ccco2)c(=O)c2cc(S(=O)(=O)N3CCCCCC3)ccc21`, the “hERG current change (%, negative = inhibition) at 10uM” value is on record as -53.3%.
The value for `COc1ccc(N(CC(=O)NC2CCCC2)C(=O)c2ccc(C)s2)cc1OC` was 15.8%; that for `Cc1nnc(SCC(=O)N2CC(C)OC(C)C2)n1-c1ccccc1` (stereo not shown) was 5.1%; that for `CCN(CC)CCCNC(=O)C1CCN(C(=O)c2oc3cc4sc(N(C)C)nc4cc3c2C)CC1` was 12.6%.
As to `NC(=O)c1ccc[n+](CC(=O)Nc2ccccc2C(=O)O)c1.[Cl-]`, the “hERG current change (%, negative = inhibition) at 10uM” value is given as -7.23%.
As for `COCCNC(=S)N1CCN(c2cccc(C(F)(F)F)c2)CC1`, the figure is -12.2%; as for `O=C(CCc1ccccc1)NCCS(=O)(=O)N1CCN(c2ccccc2)CC1`, -22%; as for `CN1/C(=C\C=C(C#N)C#N)C(C)(C)c2ccccc21`, 11.5%.
